This passage reports binding signal results from publication PMC9911399, “Two distinct binding modes provide the RNA-binding protein RbFox with extraordinary sequence specificity”.

Changes are numbered by the printed parent chain; changes in the protein carry UniProt numbers. This is one part of the list.

The labels stand for the following.
B1: UCCUCCA (DNA:RNA)
RNA: GGGAGACCGGAAUUCAGAUUGUCCUCCUCCAUUAAAUCCCGUCGUAGCCACCA
DNA 1: CAATCTGAATTCCGGTCTCCC
DNA 2: TGGTGGCTACGACGGGATT
B2: UGCUUUG (DNA:RNA)
RNA: B1 RNA with C26G, C29U, C30U, A31G
DNA 1: CAATCTGAATTCCGGTCTCCC
DNA 2: TGGTGGCTACGACGGGATT
B3: UUUGUGA (DNA:RNA)
RNA: B1 RNA with C26U, C27U, U28G, C29U, C30G
DNA 1: CAATCTGAATTCCGGTCTCCC
DNA 2: TGGTGGCTACGACGGGATT
B4: UACGUGU (DNA:RNA)
RNA: B1 RNA with C26A, U28G, C29U, C30G, A31U
DNA 1: CAATCTGAATTCCGGTCTCCC
DNA 2: TGGTGGCTACGACGGGATT
B5: CAACGGG (DNA:RNA)
RNA: GGGAGACCGGAAUUCAGAUUGUCCCAACGGGUUAAAUCCCGUCGUAGCCACCA
DNA 1: CAATCTGAATTCCGGTCTCCC
DNA 2: TGGTGGCTACGACGGGATT
B6: AUAACAU (DNA:RNA)
RNA: B5 RNA with C25A, A26U, C28A, G29C, G30A, G31U
DNA 1: CAATCTGAATTCCGGTCTCCC
DNA 2: TGGTGGCTACGACGGGATT
B7: CGUGGAU (DNA:RNA)
RNA: B5 RNA with A26G, A27U, C28G, G30A, G31U
DNA 1: CAATCTGAATTCCGGTCTCCC
DNA 2: TGGTGGCTACGACGGGATT
B8: CGCGAGA (DNA:RNA)
RNA: B5 RNA with A26G, A27C, C28G, G29A, G31A
DNA 1: CAATCTGAATTCCGGTCTCCC
DNA 2: TGGTGGCTACGACGGGATT
B9: UCUACCU (DNA:RNA)
RNA: B1 RNA with C27U, U28A, A31U
DNA 1: CAATCTGAATTCCGGTCTCCC
DNA 2: TGGTGGCTACGACGGGATT
B10: GUGCCGU (DNA:RNA)
RNA: B5 RNA with C25G, A26U, A27G, G29C, G31U
DNA 1: CAATCTGAATTCCGGTCTCCC
DNA 2: TGGTGGCTACGACGGGATT
B11: UGCCUAA (DNA:RNA)
RNA: B1 RNA with C26G, U28C, C29U, C30A
DNA 1: CAATCTGAATTCCGGTCTCCC
DNA 2: TGGTGGCTACGACGGGATT
B12: GGAAGAG (DNA:RNA)
RNA: B5 RNA with C25G, A26G, C28A, G30A
DNA 1: CAATCTGAATTCCGGTCTCCC
DNA 2: TGGTGGCTACGACGGGATT
B13: UCGUGCU (DNA:RNA)
RNA: B1 RNA with C27G, C29G, A31U
DNA 1: CAATCTGAATTCCGGTCTCCC
DNA 2: TGGTGGCTACGACGGGATT
B14: UAGAACU (DNA:RNA)
RNA: B1 RNA with C26A, C27G, U28A, C29A, A31U
DNA 1: CAATCTGAATTCCGGTCTCCC
DNA 2: TGGTGGCTACGACGGGATT
B15: AGCGCCU (DNA:RNA)
RNA: B1 RNA with U25A, C26G, U28G, A31U
DNA 1: CAATCTGAATTCCGGTCTCCC
DNA 2: TGGTGGCTACGACGGGATT
B16: UGCGCAC (DNA:RNA)
RNA: B1 RNA with C26G, U28G, C30A, A31C
DNA 1: CAATCTGAATTCCGGTCTCCC
DNA 2: TGGTGGCTACGACGGGATT
B17: GGAAACA (DNA:RNA)
RNA: B1 RNA with U25G, C26G, C27A, U28A, C29A
DNA 1: CAATCTGAATTCCGGTCTCCC
DNA 2: TGGTGGCTACGACGGGATT
B18: ACACACG (DNA:RNA)
RNA: B5 RNA with C25A, A26C, G29A, G30C
DNA 1: CAATCTGAATTCCGGTCTCCC
DNA 2: TGGTGGCTACGACGGGATT
B19: GCGCUUG (DNA:RNA)
RNA: B5 RNA with C25G, A26C, A27G, G29U, G30U
DNA 1: CAATCTGAATTCCGGTCTCCC
DNA 2: TGGTGGCTACGACGGGATT
B20: UAACCUU (DNA:RNA)
RNA: B5 RNA with C25U, G29C, G30U, G31U
DNA 1: CAATCTGAATTCCGGTCTCCC
DNA 2: TGGTGGCTACGACGGGATT
B21: GGCGCUU (DNA:RNA)
RNA: B1 RNA with U25G, C26G, U28G, C30U, A31U
DNA 1: CAATCTGAATTCCGGTCTCCC
DNA 2: TGGTGGCTACGACGGGATT
B22: CGCCGGC (DNA:RNA)
RNA: B5 RNA with A26G, A27C, G31C
DNA 1: CAATCTGAATTCCGGTCTCCC
DNA 2: TGGTGGCTACGACGGGATT
B23: UACCCGC (DNA:RNA)
RNA: B5 RNA with C25U, A27C, G29C, G31C
DNA 1: CAATCTGAATTCCGGTCTCCC
DNA 2: TGGTGGCTACGACGGGATT
B24: GGGUGAU (DNA:RNA)
RNA: B5 RNA with C25G, A26G, A27G, C28U, G30A, G31U
DNA 1: CAATCTGAATTCCGGTCTCCC
DNA 2: TGGTGGCTACGACGGGATT
B25: UUGCGCG (DNA:RNA)
RNA: B5 RNA with C25U, A26U, A27G, G30C
DNA 1: CAATCTGAATTCCGGTCTCCC
DNA 2: TGGTGGCTACGACGGGATT
B26: CCCGGUA (DNA:RNA)
RNA: B1 RNA with U25C, U28G, C29G, C30U
DNA 1: CAATCTGAATTCCGGTCTCCC
DNA 2: TGGTGGCTACGACGGGATT
B27: UUAGAGA (DNA:RNA)
RNA: B5 RNA with C25U, A26U, C28G, G29A, G31A
DNA 1: CAATCTGAATTCCGGTCTCCC
DNA 2: TGGTGGCTACGACGGGATT
B28: CGUUUCG (DNA:RNA)
RNA: B5 RNA with A26G, A27U, C28U, G29U, G30C
DNA 1: CAATCTGAATTCCGGTCTCCC
DNA 2: TGGTGGCTACGACGGGATT
B29: CGGCUUG (DNA:RNA)
RNA: B5 RNA with A26G, A27G, G29U, G30U
DNA 1: CAATCTGAATTCCGGTCTCCC
DNA 2: TGGTGGCTACGACGGGATT
B30: UCGUCAU (DNA:RNA)
RNA: B1 RNA with C27G, C30A, A31U
DNA 1: CAATCTGAATTCCGGTCTCCC
DNA 2: TGGTGGCTACGACGGGATT
B31: UCGGACU (DNA:RNA)
RNA: B1 RNA with C27G, U28G, C29A, A31U
DNA 1: CAATCTGAATTCCGGTCTCCC
DNA 2: TGGTGGCTACGACGGGATT

The test has as its target T1, RBFOX1 RRM (Homo sapiens, UniProt Q9NWB1 109-208).
T1 sequence: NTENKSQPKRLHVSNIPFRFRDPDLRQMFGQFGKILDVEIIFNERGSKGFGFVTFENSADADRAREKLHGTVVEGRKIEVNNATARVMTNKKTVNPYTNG
Nature of the test: EMSA; HiTS-Eq, 1 nM pool, 10 min; buffer printed only for the single-RNA assays: 10 mM Tris pH 7.5, 150 mM NaCl, 3.4 mM EDTA, 0.001% NP-40, 30 C. The conditions noted are these: tags: His6 N-terminal (pET28a); label: 5' 32P. The essentials: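 These values rest on relative association constants, computed from read-count changes of each RNA species versus the control reaction and normalised to the cognate motif. Reads came from free RNA recovered by 8% native PAGE after purified RbFox RRM (wild type or mutant) at increasing concentrations was equilibrated for 10 min in 50 µL with 1 nM of a 5′-radiolabelled pool with 7 randomized nucleotides and DNA-annealed flanks.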
On the technique in general: A gel shift assay detects complexes by their altered migration in electrophoresis.
For B1, the binding signal was 0.00244 KA relative to UGCAUGU.

For the molecule B2, the binding signal was 0.0377 KA relative to UGCAUGU.

B3: the binding signal is 0.0163 KA relative to UGCAUGU.

As to B4, the binding signal was 0.0158 KA relative to UGCAUGU.

Consider B5, for which the binding signal was 0.00606 KA relative to UGCAUGU.

As for B6, the binding signal was 0.00129 KA relative to UGCAUGU.

On to B7, for which the binding signal was 0.0146 KA relative to UGCAUGU.

In the case of B8, the binding signal is 0.0128 KA relative to UGCAUGU.

With B9, the binding signal was 0.00333 KA relative to UGCAUGU.

For the molecule B10, the binding signal is 0.0123 KA relative to UGCAUGU.

For B11, the binding signal is 0.00975 KA relative to UGCAUGU.

B12: the binding signal is 0.0232 KA relative to UGCAUGU.

With B13, the binding signal was 0.0181 KA relative to UGCAUGU.

On to B14, for which the binding signal was 0.00828 KA relative to UGCAUGU.

Turning to B15, the binding signal was 0.00967 KA relative to UGCAUGU.

B16: the binding signal was 0.0185 KA relative to UGCAUGU.

Regarding B17, the binding signal was 0.0104 KA relative to UGCAUGU.

On to B18, for which the binding signal was 0.0018 KA relative to UGCAUGU.

As for B19, the binding signal was 0.0323 KA relative to UGCAUGU.

Turning to B20, the binding signal is 0.00248 KA relative to UGCAUGU.

Consider B21, for which the binding signal was 0.0141 KA relative to UGCAUGU.

On to B22, for which the binding signal was 0.0134 KA relative to UGCAUGU.

For B23, the binding signal is 0.00332 KA relative to UGCAUGU.

Take B24: the binding signal was 0.0158 KA relative to UGCAUGU.

B25: the binding signal is 0.0286 KA relative to UGCAUGU.

For B26, the binding signal was 0.0187 KA relative to UGCAUGU.

For the molecule B27, the binding signal is 0.00858 KA relative to UGCAUGU.

Take B28: the binding signal is 0.0144 KA relative to UGCAUGU.

Turning to B29, the binding signal is 0.0325 KA relative to UGCAUGU.

B30: the binding signal is 0.00535 KA relative to UGCAUGU.

For B31, the binding signal was 0.00297 KA relative to UGCAUGU.
